# In all, about 48,000 compounds went through this assay and about 120 (0.25%) were called active. Another 4% or so got no clear call; they are omitted. Calls come from the whole dose curve; as a rule, active = well fitted activation curve with a large enough effect; inconclusive = small, poorly fitted or top-dose-only effect, or another doubt; inactive = no such curve, though single readings can be large or run the other way. The list shows a part of the results.
# Experiment: Primary qHTS for Identification of Small Molecule Activators of Huntingtin-Antisense Promoter Activity; note: nearly all actives have a fitted effect of over 55% in size
# Details: HEK293 HTT-AS promoter firefly luciferase reporter (activity 0% = vehicle and -100% = no light), 24 h; series mostly up to 57.5 µM; activity change, positive = activation: at the top concentration
# In short: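 HEK293 luciferase promoter-reporter cells (2,500/well) plated 24 h, then compounds added at up to 57.5 uM final for 24 h at 37 °C. Firefly luminescence by Dual-Glo, normalized to vehicle (0%) and zero RLU (-100%).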
row,SMILES,"activity change, positive = activation"
1,COc1ccc(-c2cc(C(F)(F)F)c(C#N)c(SCC(=O)Nc3ccccc3F)n2)cc1,inactive: -8.06%
2,COc1ccc(-n2c(/C=C/c3c(C)[nH]c4ccccc34)nc3ccccc3c2=O)cc1,inactive: -11.8%
3,COc1cccc(CNc2nccn(-c3ccc(OC)c(OC)c3)c2=O)c1,inactive: -1.98%
4,Cc1nn(C)c2c1c(-c1ccccc1)cc(=O)n2Cc1ccc(Cl)cc1,inactive: -25.1%
5,COc1ccccc1C(=O)Nc1ccc(OCc2cc(=O)n3ccc(C)cc3n2)cc1,inactive: -1.11%
6,COc1ccc(CNC(=O)c2cnn(-c3ccc(C)cc3)c2-n2cccc2)cc1OC,inactive: -37.4%
7,O=C(CSc1ncc(CO)n1Cc1ccc(Cl)cc1)NCc1ccc(F)cc1,inactive: -29.7%
8,COc1ccc(C(=O)Oc2cc(-c3ccc4c(c3)OCO4)cc(=O)c3c(C)oc(C)c23)cc1,inactive: -10.7%
9,Cc1cccc(NC(=O)CSc2nc(=O)n(Cc3ccccn3)c3c2CCC3)c1C,inactive: -22.7%
10,COc1ccc(CNC(=O)c2cc3cccc4c3n2CC(C)S4)c(OC)c1 (stereo not drawn),inactive: -44.3%
11,Cc1ccc(Cl)cc1NC(=O)CSc1nc2c(c(=O)[nH]1)CN(Cc1ccccc1)CC2,inactive: -9.97%
12,COc1ccc(S(=O)(=O)N2CCN(CC(=O)Nc3ccc(Cl)c(C(F)(F)F)c3)CC2)cc1,inactive: -37.6%
13,COC(=O)c1cc2oc(C)cc2n1CC(=O)Nc1cc(Cl)ccc1OC,inactive: 3.26%
14,CCOC(=O)c1ccc(NC(=O)CCc2c(C)nc3c(-c4ccc(F)cc4)c(C)nn3c2C)cc1,inactive: -12.8%
15,Cc1ccc(-c2onc(C)c2C)cc1S(=O)(=O)Nc1ccc(Cl)cn1,inactive: -11.4%
16,Cc1ccccc1C(=O)Nc1ccc(C(=O)OCc2cc(=O)n3nc(C(C)C)sc3n2)cc1,inactive: 4.38%
17,COc1ccc(NC(=O)C2Cc3ccccc3N2C(=O)c2ccccc2)cc1OC (stereo not drawn),inactive: -26.1%
18,CCOc1ccc(NC(=O)N(C(C)C)C2CCN(C(C)=O)CC2)cc1,inactive: -0.404%
19,COC(=O)c1cccc(Nc2nn3c(=O)c4cc5c(cc4nc3s2)OCO5)c1,inactive: -5.76%
20,COc1ccc(-c2[nH]c3ccccc3c2SCCNC(=O)c2ccc(S(=O)(=O)N(C)C)cc2)cc1,inactive: -27.5%
21,COc1ccc(S(=O)(=O)NCC(c2ccc(N(C)C)cc2)N2CCOCC2)cc1 (stereo not drawn),inactive: -11.5%
22,Cc1ccc2[nH]c3c(=O)n(CC(=O)NC(C)C)ncc3c2c1,inactive: -11%
23,COC(=O)Nc1nc2ccc(Sc3ccccc3)cc2[nH]1,inactive
24,COc1ccc(CNC(=O)CSc2ncc(S(=O)(=O)c3ccc(Br)cc3)c(=O)[nH]2)cc1,inactive: -15%

row,SMILES,"activity change, positive = activation"
1,CCNc1oc(-c2ccc(COc3ccc(Cl)cc3)o2)nc1C#N,inactive: -34%
2,CCCCOc1ccc(CNC(=O)Cc2ccc(NC(=O)N3CCSc4ncccc43)cc2)cc1,inactive: -30.7%
3,O=C(CSC1=Nc2ccccc2N=C(c2ccc(F)cc2)C1)NCc1ccccc1Cl,inactive: -31.9%
4,Cc1nn(-c2ccc(N3CCOCC3)nn2)c(C)c1CCC(=O)NCc1ccccc1F,inactive: -11.8%
5,O=C(O)c1cn(C2CC2)c2cc(N3CCNCC3)c(F)cc2c1=O,inactive
6,CCOc1ccc(CNC(=O)c2sc3ncnc(N(C)C4CCCCC4)c3c2C)cc1,inactive: -10.6%
7,NC(=O)c1ccccc1NC(=O)Cn1nc(Cc2cccnc2)c2ccccc2c1=O,inactive: -23%
8,COc1ccc(CNC(=O)c2ccc(-c3nc(CSc4ccccc4)c(C)o3)cc2)c(OC)c1,inactive: 12%
9,CC(=O)c1cccc(NC(=O)c2cc3nc(-c4ccc(Br)cc4)cc(C(F)(F)F)n3n2)c1,inactive: -33.9%
10,N#Cc1c[nH]n2c(NC3CCCCC3)c(-c3cccc(Cl)c3)nc12,inactive: 36.9%
11,Cc1ccc(-c2nc(C)c(CCNC(=O)C(=O)Nc3ccc4c(c3)OCO4)s2)cc1,inactive: 6.37%
12,COc1ccc(CCN2C(=O)N(c3ccccc3)C(=O)C2CC(=O)Nc2ccccc2)cc1 (stereo not drawn),inactive: -0.406%
13,CCOC(=O)C1CCN(CCC(=O)Nc2ccc(OC)cc2)CC1,inactive: -24.4%
14,CCCN1C(=O)C2(c3ccccc31)c1c(oc3ccc(C)cc3c1=O)C(=O)N2CCOC (stereo not drawn),inactive: -10.4%
15,O=C(Nc1ccc(Cl)cc1)Nc1ccc(Cl)c(C(F)(F)F)c1,inactive: -66.6%
16,Cc1nc(N2CCOCC2)c2c(C(=O)N3CCN(c4cccc(C)c4C)CC3)c(C)oc2n1,inactive: -16.6%
17,COc1cc(C(=O)N2CC(=O)Nc3ccc(C)cc3C2c2ccc(F)cc2)cc(OC)c1OC (stereo not drawn),inactive: 2.28%
18,Cc1cccc(NC(=O)CSc2nc3c(oc4ccccc43)c(=O)n2-c2ccc(F)cc2)c1,inactive: -21.1%
19,COc1ccc2c(CNCCc3ccccc3)c(C(=O)O)n(Cc3cccc(F)c3)c2c1,inactive: -32%
20,COc1ccc(Nc2cc(C(=O)NCc3ccccc3)c3ccccc3n2)c(OC)c1,inactive: 16.1%
21,O=S(=O)(c1ccc2nc(N3CCN(c4ccccc4)CC3)ccc2c1)N1CCCCC1,inactive: -16.3%
22,CCOc1ccc(-c2cn3c(n2)sc2cc(C(=O)NC4CCCc5ccccc54)ccc23)cc1 (stereo not drawn),inactive: 5.48%
23,N#CC(=C(N)Sc1ccccc1N)C(C#N)=C(N)Sc1ccccc1N,inactive: -30.7%
24,Cc1ccc(NC(=O)CC(C)S(=O)(=O)c2ccc3c(c2)NC(=O)CO3)cc1C (stereo not drawn),inactive: -1.72%

# Source: PubChem BioAssay AID1508624 (National Center for Advancing Translational Sciences (NCATS), 2021)
